According to paper PMC11142307:
Results are given in words; binding and its absence hold for the method and conditions named. In cells and extracts the contact can be indirect. Some binding calls cover weakened binding; strength is not graded here.

What was measured:
[1] = molecular target: T1, Mms22 (budding yeast (endogenous locus, W303 derivative)) (UniProt Q06164); assay: co-IP; Supplementary Fig. 1a; the text does not name the method of this panel, co-immunoprecipitation from yeast whole-cell extract is the only binding method in the methods
T1 sequence: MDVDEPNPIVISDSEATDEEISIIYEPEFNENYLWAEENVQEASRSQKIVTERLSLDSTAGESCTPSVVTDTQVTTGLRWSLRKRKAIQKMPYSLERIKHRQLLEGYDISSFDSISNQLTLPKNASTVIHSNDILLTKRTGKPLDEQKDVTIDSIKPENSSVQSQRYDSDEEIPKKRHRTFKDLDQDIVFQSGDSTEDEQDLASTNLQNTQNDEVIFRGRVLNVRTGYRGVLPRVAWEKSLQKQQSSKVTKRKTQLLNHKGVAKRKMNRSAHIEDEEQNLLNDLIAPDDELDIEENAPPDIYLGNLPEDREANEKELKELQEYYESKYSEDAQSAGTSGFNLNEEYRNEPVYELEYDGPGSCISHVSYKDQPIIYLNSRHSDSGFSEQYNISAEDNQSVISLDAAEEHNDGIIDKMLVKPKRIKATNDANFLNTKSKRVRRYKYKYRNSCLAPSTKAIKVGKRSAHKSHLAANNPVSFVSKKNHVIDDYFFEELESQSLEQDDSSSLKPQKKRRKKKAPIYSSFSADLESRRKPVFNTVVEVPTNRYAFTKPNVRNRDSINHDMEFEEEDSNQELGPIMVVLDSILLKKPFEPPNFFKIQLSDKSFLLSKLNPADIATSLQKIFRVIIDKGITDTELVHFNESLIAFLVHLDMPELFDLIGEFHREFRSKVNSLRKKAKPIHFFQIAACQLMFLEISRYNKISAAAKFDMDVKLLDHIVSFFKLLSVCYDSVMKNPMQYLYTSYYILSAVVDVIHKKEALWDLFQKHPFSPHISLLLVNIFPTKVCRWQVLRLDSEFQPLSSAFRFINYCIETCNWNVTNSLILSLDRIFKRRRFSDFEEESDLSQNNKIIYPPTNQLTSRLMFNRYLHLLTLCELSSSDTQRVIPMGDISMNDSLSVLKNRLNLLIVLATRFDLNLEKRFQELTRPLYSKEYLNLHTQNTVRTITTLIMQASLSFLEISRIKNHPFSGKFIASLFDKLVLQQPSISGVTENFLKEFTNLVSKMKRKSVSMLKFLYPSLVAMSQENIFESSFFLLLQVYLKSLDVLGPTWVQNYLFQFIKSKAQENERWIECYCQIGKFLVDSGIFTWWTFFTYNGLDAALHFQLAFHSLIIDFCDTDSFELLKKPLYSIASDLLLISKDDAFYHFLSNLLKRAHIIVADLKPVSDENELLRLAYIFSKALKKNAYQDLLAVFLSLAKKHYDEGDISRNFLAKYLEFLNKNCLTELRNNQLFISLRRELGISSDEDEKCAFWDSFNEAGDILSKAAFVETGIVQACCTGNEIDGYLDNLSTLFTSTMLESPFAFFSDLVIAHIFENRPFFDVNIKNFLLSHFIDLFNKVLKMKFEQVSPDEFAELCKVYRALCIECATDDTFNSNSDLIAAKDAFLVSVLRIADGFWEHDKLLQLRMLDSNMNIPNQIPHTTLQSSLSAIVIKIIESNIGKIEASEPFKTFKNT

[2] = molecular target: T2, Mms22 with alanine substitution of D13 and Y33 in the Rtt107-interaction-motif (mms22^RIM) (budding yeast (endogenous locus, W303 derivative)) (UniProt Q06164); assay: as above
T2 sequence: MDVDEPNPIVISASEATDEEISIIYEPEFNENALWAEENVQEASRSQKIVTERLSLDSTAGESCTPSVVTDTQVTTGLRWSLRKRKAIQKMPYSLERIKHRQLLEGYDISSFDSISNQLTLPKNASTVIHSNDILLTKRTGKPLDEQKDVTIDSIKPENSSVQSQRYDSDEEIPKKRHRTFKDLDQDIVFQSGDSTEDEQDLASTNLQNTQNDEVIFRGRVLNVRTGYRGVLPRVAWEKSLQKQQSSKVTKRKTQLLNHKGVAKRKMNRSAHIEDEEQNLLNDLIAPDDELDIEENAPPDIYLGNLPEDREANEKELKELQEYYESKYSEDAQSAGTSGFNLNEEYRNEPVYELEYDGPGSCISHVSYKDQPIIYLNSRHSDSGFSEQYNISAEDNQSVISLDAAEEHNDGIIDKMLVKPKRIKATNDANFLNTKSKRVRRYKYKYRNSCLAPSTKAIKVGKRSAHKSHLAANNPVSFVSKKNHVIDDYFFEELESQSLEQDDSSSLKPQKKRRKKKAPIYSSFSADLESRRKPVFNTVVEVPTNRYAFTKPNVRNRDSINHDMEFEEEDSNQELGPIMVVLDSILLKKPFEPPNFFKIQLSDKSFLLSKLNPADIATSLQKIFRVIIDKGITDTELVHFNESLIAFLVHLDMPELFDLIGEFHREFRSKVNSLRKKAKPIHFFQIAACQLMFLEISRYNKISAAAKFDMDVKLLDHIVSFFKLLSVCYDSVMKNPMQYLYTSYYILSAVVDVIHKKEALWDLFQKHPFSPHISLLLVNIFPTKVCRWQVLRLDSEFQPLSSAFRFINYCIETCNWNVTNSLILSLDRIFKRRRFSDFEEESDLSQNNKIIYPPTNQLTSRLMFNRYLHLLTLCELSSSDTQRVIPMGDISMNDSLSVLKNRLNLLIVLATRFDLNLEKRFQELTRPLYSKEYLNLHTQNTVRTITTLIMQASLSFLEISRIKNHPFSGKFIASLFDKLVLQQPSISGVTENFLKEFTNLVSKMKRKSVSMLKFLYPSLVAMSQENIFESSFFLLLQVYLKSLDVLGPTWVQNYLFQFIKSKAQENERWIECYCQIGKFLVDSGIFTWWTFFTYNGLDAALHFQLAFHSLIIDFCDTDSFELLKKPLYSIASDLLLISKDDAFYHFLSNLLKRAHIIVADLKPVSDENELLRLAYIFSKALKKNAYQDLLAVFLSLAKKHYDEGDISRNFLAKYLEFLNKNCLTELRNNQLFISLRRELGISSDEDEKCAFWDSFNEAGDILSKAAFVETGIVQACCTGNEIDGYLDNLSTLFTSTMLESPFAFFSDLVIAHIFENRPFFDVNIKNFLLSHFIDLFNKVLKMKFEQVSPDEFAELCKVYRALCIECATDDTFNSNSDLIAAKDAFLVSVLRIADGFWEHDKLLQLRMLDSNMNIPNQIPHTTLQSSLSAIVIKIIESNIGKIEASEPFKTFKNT

B1: Mms1 (protein, UniProt Q06211 1-1407)
chain: MLGLRTHGLDRYEHYIRRPSDFGKLELQDWLNHKSFRVSPNLLIDSSTTREWNEPELFYQNTEDETWVRPCVGPKLEPSMMMLRYHDSNIGQMPQFCYPISSPINFKPVLKYILQERSELSDGFPQKYNTLIGSLFDIDKNPETLDDSDIEALDDIEMSSDSGNVKEPKIELQALEEIQQKHFSLIVSNNGIFQTGSTSITYIQSGISGSIAIKPNNVAILILLTQPSGHLLSILPLDDGKETYLLQYWNLGQKGQWNIIKHQNEKQFVLIHKELGICKFFEFHLPFTFQLVNNLTLTDSVIMNGSFFPTNYTDLDPYFIIFITAIRYERIVYFVIEWNNNEIKKKEVYQLTVFDGEKTNMTIPIGLNACLVETPLKFSLVSANQIMSGETEFHSFQLKALKGIKSFFPAPLLLLKLQELHPHTFKKFQYCTIISSSTGNICFCVTERSTIVNGNLKFYELTRFKGLKSISPLPSNPINLDSRSSSYVLVVISFSRTLELTLSLEDLRCLDKKDVIKPLKNITFKHTIDSSTEENSQILAFTSSKFYNTHTGSNINDTRNSQVWLTSPNAITQPCIDYKLRKTHQLIHLKQFQIFRHLRIWKCKNLDIALLQRLGINQSNTESSLIFATDAVSNNRIFLLDLTMTTTIDNDDPVQGLINIEDLLCDTENETILLNFTKNNLIQVTRDTIYIDPIGGDKELRKISPGWEFENVTYNDGILIVWNAGLGCVSYIENIDAVDESGALVSNLSSSKGMSKFFKQLGTVTSVNFQIKESTDDPTKYDIWILLPDCVIRTPFSDWISDSLDFSDVYILSVQQALINGPYFCSLDYESYFEVHTLQNNCFKKGSRCTSRVNFQGKDIKFRSFGVNQCLAFSAFEIFVINLTPIHDSRELDFYKLKLPHLGNNNSILEVCPDIENNQLFILYSDGLRILELSYLTSNNGNFLLKSTRSKNKKFLYLDKINRMLVLNQDLREWECIRLSDGKAVGLDSQLLKDDSEEILEIKELPIATEDNPLEKKTVLLISFTSSLKLVLLTAAKNKISNQIIDSYKLDNSRLLNHLVITPRGEIFFLDYKVMGTDNEMSFNKLKVTKHCIDQEERNNTTLRLTLETRFTFKSWSTVKTFTVVGDNIIATTNMGEKLYLIKDFSSSSDESRRVYPLEMYPDSKVQKIIPLNECCFVVAAYCGNRNDLDSRLIFYSLPTIKVGLNNETGSLPDEYGNGRVDDIFEVDFPEGFQFGTMALYDVLHGERHVNRYSEGIRSENDEAEVALRQRRNLLLFWRNHSSTPKPSLRRAATIVYEDHVSSRYFEDISSILGSTAMRTKRLSPYNAVALDKPIQDISYDPAVQTLYVLMADQTIHKFGKDRLPCQDEYEPRWNSGYLVSRRSIVKSDLICEVGLWNLSDNCKNTV
- binding [1]: binds
- binding [2]: binds
